Assay results: PubChem BioAssay AID540267 (National Center for Advancing Translational Sciences (NCATS), 2011)
Hit rate of the full screen: of about 340,000 compounds, about 530 (0.16%) were called active. The shares of active, inactive and inconclusive entries below differ from those in the screen. Cut-off read from the data, not from the text of the source: active = activity change below about -80%; inconclusive = between about -30% and that limit; inactive = weaker than that.

Assay: Small Molecules that selectively kill Giardia lamblia: qHTS;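 note: parasites exposed to compound for two days anaerobically before the ATP read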
Conditions: Giardia lamblia trophozoite viability; at 7.66 µM; active compounds read low
Method in brief: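 Each well holds 100 Giardia trophozoites and compound. After two days (48 hrs) at 37 deg C in anaerobic conditions, ATP is quantified by luminescence.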
% is set by controls: 0 for no effect and ±100 for the full control effect.

Row | Structure (SMILES) | activity change
1 | CC(C)(C)c1nc(SCC(=O)NCc2cccs2)c2ccccc2n1 | inconclusive: -31.1% [inhibitor]
2 | Cc1cccc(C(=O)NCCNC(=O)c2cccc(C)c2)c1 | inactive: 16.6%
3 | O=C(CCS(=O)(=O)c1ccccc1)Nc1nc(-c2ccccn2)cs1 | inconclusive: -34.1% [inhibitor]
4 | COc1ccc(C(=O)N/C(=C/c2cccnc2)C(=O)N2CCCCCC2)cc1OC | inconclusive: -31% [inhibitor]
5 | O=C(Nc1ccc(NC(=O)c2ccco2)nc1)c1ccco1 | inconclusive: -44.9% [inhibitor]
6 | COc1cccc(/C=C2/CN(C)CC3=C2OC(N)=C(C#N)C3c2cccc(OC)c2)c1 (stereo unspecified) | inactive: -7.08%
7 | C#CCOCCOCCOCCNc1nc(N2CCN(C(=O)[C@H]([C@@H](C)O)n3cc(CCCCN)nn3)CC2)nc(N2CCN(C(=O)[C@H]([C@@H](C)CC)n3cc(CCCN=C(N)N)nn3)CC2)n1 | inconclusive: -44.4% [inhibitor]
8 | CCc1ccc(NC(=O)CSc2nc(CSc3ccc(C)cc3)cc(=O)[nH]2)cc1 | inconclusive: -33.4% [inhibitor]
9 | COc1ccc(C(=O)Nc2nnc(SCC(=O)NCc3ccco3)s2)c(OC)c1 | inconclusive: -40.3% [inhibitor]
10 | COC(=O)CCN1CCC2CC1c1cc(Cl)ccc12 (stereo unspecified) | inconclusive: -32.9% [inhibitor]
11 | COc1ccc(OC)c(CCNC(=O)CSc2ccsc2[N+](=O)[O-])c1 | inconclusive: -72.4% [inhibitor]
12 | Cc1cccc(NC(=S)NC(C)C(c2cccs2)N2CCN(C)CC2)c1C (stereo unspecified) | inconclusive: -32.3% [inhibitor]
13 | CNC(=O)CSc1nnc(NC(=O)C2CC(=O)N(c3ccccc3OC)C2)s1 (stereo unspecified) | inactive: -2.03%
14 | O=C(CN1C(=O)c2ccccc2S1(=O)=O)c1ccc2c(c1)OCCCO2 | inconclusive: -73% [inhibitor]
15 | O=C(N=C1SC2CS(=O)(=O)CC2N1c1ccccc1F)C1CCCCC1 (stereo unspecified) | inconclusive: -33% [inhibitor]
16 | C/C(=N\NC(=O)C1(C)NC(C)(C)Cc2ccccc21)c1ccccc1 (stereo unspecified) | inconclusive: -32% [inhibitor]
17 | O=c1[nH]cnc2c1[nH]c(=S)n2C1O[C@@H](CO)[C@H](O)[C@@H]1O (stereo partly specified) | inactive: -5.47%
18 | O=C(COc1cccnc1[N+](=O)[O-])Nc1ncc(Cl)cc1Cl | active: -80.4%
19 | O=C1CC(c2ccco2)Cc2c1cnn2-c1nc2ccccc2s1 (stereo unspecified) | inconclusive: -35.8% [inhibitor]
20 | c1c2c(cc3sc(N4CCOCC4)nc13)OCCO2 | inconclusive: -48.9% [inhibitor]
21 | O=C(CN1C(=O)c2ccccc2C1=O)OCC(=O)N1CCCCC1 | inconclusive: -38.1% [inhibitor]
22 | CC(C)C(CCNCc1ccccn1)c1ccc(Cl)cc1 (stereo unspecified) | inactive: -25.8%
23 | COc1cccc(NC(=O)CN(C)C(C)C(=O)N2CCCC2)c1 (stereo unspecified) | inconclusive: -36.3% [inhibitor]
24 | O=C(Nc1cccnc1)c1ccc([N+](=O)[O-])o1 | active: -85.8%
25 | COC(=O)C1(c2ccccc2)NC(c2cccs2)C2C(=O)N(c3ccccc3)C(=O)C21 (stereo unspecified) | inactive: 6.33%
26 | CC12CCC(=O)N1C(C(=O)Nc1nnc(SCc3ccccc3F)s1)CS2 (stereo unspecified) | inconclusive: -32.6% [inhibitor]

Row | Structure (SMILES) | activity change
27 | Cc1ccc(C2=NN(C(=O)CN3CCN(C4CCS(=O)(=O)C4)CC3)C(c3ccco3)C2)cc1 (stereo unspecified) | inconclusive: -38.7% [inhibitor]
28 | Cc1onc(-c2ccccc2Cl)c1C(=O)Nc1ccc(F)c(F)c1 | inactive: -1.56%
29 | CCOc1ccc2[nH]c3c(NCCCOC)ncnc3c2c1 | inactive: 28.3%
30 | O=C(/C=C/c1cccs1)Nc1scc(-c2ccccc2)c1C(=O)O | inconclusive: -33% [inhibitor]
31 | Clc1ccc(Cn2ncc3c(NCc4ccccc4)ncnc32)cc1 | inactive: 10%
32 | CCc1ccc2[nH]c(=O)c(C(c3nnnn3CC3CCCO3)N3CCCc4ccccc43)cc2c1 (stereo unspecified) | inactive: 0.662%
33 | CCc1nnc(NC(=O)c2oc3cc(C)c(C)cc3c2C)s1 | inactive: -6.09%
34 | COc1ccc(-n2sc3c(c2=S)-c2cc(OC)ccc2NC3(C)C)cc1 | inactive: -21.4%
35 | Cc1cc(N2C(=O)C3CCC(c4ccccc4)CC3C2=O)no1 (stereo unspecified) | inconclusive: -32.3% [inhibitor]
36 | CCc1cc2c(=O)c(-c3ccc4c(c3)OCCO4)coc2cc1OS(C)(=O)=O | inactive: -2.91%
37 | CN(C)S(=O)(=O)c1cccc(NC(=O)COC(=O)CNC(=O)c2ccccc2F)c1 | inconclusive: -35.4% [inhibitor]
38 | CCC12CCCN3CCc4c(n(c5ccccc45)C(O)(C(=O)OC)C1)C32 (stereo unspecified) | inactive: 11.9%
39 | Cc1ccc(NC(=O)c2sc(Cl)nc2-c2ccccc2)cc1C | inactive: -25%
40 | O=c1[nH]c(=O)c2cc([N+](=O)[O-])cc([N+](=O)[O-])c2[nH]1 | inconclusive: -48.2% [inhibitor]
41 | Cc1cc(NC(=O)c2sccc2C)n(-c2cccc(Cl)c2)n1 | inconclusive: -32.6% [inhibitor]
42 | Cc1ccccc1N1CCN(Cc2ccc([N+](=O)[O-])o2)CC1 | active: -83.1%
43 | COCCn1c(N)c(Sc2ccc(C)cc2)c(=O)[nH]c1=O | inconclusive: -44% [inhibitor]
44 | CC[C@]12c3[nH]c4cc(CCC(=O)N(C)C)ccc4c3CCN1C(=O)[C@@H](CC(=O)NCC13CC4CC(CC(C4)C1)C3)C[C@@H]2C(=O)N1CCN(C(=O)C2CC2)CC1 | inconclusive: -38.4% [inhibitor]
45 | COc1ccc(NC(=O)C23CC4CC(CC(Cl)(C4)C2)C3)cc1S(=O)(=O)N1CCOCC1 | inactive: 15.3%
46 | Cc1ccc(S(=O)(=O)N2CCN(C(=O)c3nn(C(C)C)c(=O)c4ccccc34)CC2)cc1C | inconclusive: -30.2% [inhibitor]
47 | Cc1ccccc1CC1(CO)CCCN(C(=O)c2ccc3ncccc3c2)C1 (stereo unspecified) | inactive: 10.7%
48 | COC(=O)c1cc(S(=O)(=O)N2CCC(C(N)=O)CC2)oc1C | inconclusive: -33.7% [inhibitor]
49 | O=C(Nc1cccc(C(=O)O)c1)Nc1ccc2c(c1)OCO2 | inconclusive: -44.5% [inhibitor]
50 | CC(C)CC(=O)NC(=S)NNC(=O)c1ccc([N+](=O)[O-])cc1 | inconclusive: -54.6% [inhibitor]
51 | COC(=O)[C@]1(Cc2ccccc2)N[C@H](CN(C)S(=O)(=O)c2ccc(C(C)(C)C)cc2)[C@@H]2C(=O)N(Cc3ccccc3)C(=O)[C@@H]21 | inconclusive: -38.6% [inhibitor]
52 | COC(=O)c1ccc(CN2CCC(Oc3cccc(C(=O)N4CCOCC4)c3)CC2)cc1 | inconclusive: -33.8% [inhibitor]

Row | Structure (SMILES) | activity change
53 | COc1ccc(CC(=O)N/N=C/c2ccc(Cl)s2)cc1OC | inactive: 18%
54 | O=C(Cc1ccccc1)NNC(=S)NC(=O)c1cccnc1 | inconclusive: -39.8% [inhibitor]
55 | Clc1ccccc1N1CCN(Cc2c[nH]c3ccccc23)CC1 | inactive: 2.61%
56 | O=C(COc1ccccc1Cl)NCc1ccco1 | inactive: 1.03%
57 | Cn1c(CS(=O)Cc2c(Cl)cccc2Cl)nnc1SCc1ccc(Cl)cc1 (stereo unspecified) | inactive: -12.7%
58 | Cc1cnc(NC(=O)c2cc3c(s2)CCCC3)s1 | inconclusive: -60.6% [inhibitor]
59 | O=[N+]([O-])c1nn(-c2ccc3c(c2)OCCO3)n(O)c1=NCCC1=CCCCC1 | active: -92.5%
60 | CCCOc1ccc(/C(O)=C2/C(=O)C(=O)N(CCCOC)C2c2cccnc2)cc1 (stereo unspecified) | inconclusive: -31.7% [inhibitor]
61 | Cc1ccc(C(=O)NNC(=O)c2ccc(NC(=O)C(C)(C)C)cc2)cc1 | inactive: 24.6%
62 | O=C(CSc1nnc(-c2ccccc2F)n1C1CC1)NC(=O)c1cccc([N+](=O)[O-])c1 | inactive: 1.34%
63 | Cc1ccc(/C=C(\C#N)c2nc3ccccc3[nH]2)s1 | inconclusive: -40.7% [inhibitor]
64 | O=C1c2ccccc2C(=O)C1c1ccnc2ccccc12 | inconclusive: -62.8% [inhibitor]
65 | CCCOc1ccc(-c2cn3ccccc3n2)cc1 | inconclusive: -68.8% [inhibitor]
66 | O=C(COC(=O)CC(NC(=O)c1ccccc1Cl)c1ccccc1)Nc1cccc(F)c1 (stereo unspecified) | inconclusive: -33.3% [inhibitor]
67 | CCOC(=O)C1=C(C)N(C[C@@H]2CC[C@@H](Cc3ccc(-c4ccccc4)cc3)O2)C(=O)NC1c1ccc(C(F)(F)F)cc1 (stereo partly specified) | inactive: -12.3%
68 | CN1CCc2c(sc(NC(=O)c3ccc([N+](=O)[O-])o3)c2C(N)=O)C1 | inconclusive: -67.2% [inhibitor]
69 | COc1ccc(C(CCN2CCCCC2)c2c(OC)cc(OC)c3c(-c4ccccc4)cc(=O)oc23)cc1 (stereo unspecified) | inconclusive: -35.6% [inhibitor]
70 | Cc1cc(C(=O)COC(=O)c2ccc(O)cc2)c(C)n1CC1CCCO1 (stereo unspecified) | inactive: -25.2%
71 | CC(=O)c1ccc(NS(=O)(=O)c2cc3c(cc2C)N(C(C)=O)CCO3)cc1 | inconclusive: -40.2% [inhibitor]
72 | O=C(N/N=C/c1cc([N+](=O)[O-])ccc1O)c1cccc(NC(=O)c2cccc(Cl)c2)c1 | inconclusive: -30.5% [inhibitor]
73 | CN(C)c1ccc(NC(=O)c2cnsn2)cc1 | inconclusive: -33.6% [inhibitor]
74 | CCCCNc1ccc(C(=O)OCCN(C)C)cc1 | inactive: 8.2%
75 | C#CCOc1nc2c(c(=O)n(C)c(=O)n2C)n1Cc1ccccc1 | inactive: 0.0512%
76 | Cn1nc(-c2ccncc2)nc2c(=O)n(C)c(=O)nc1-2 | active: -88%
